Source: a collection of fitness landscapes (doi:10.1016/j.celrep.2020.107928)
In all, about 81,000 sequences were measured (“one-hybrid fitness for binding NBS DNA”: median about -0.1, highest 2% from about 0.36 on). The list shows a part of the results.

B1: Caulobacter ParB omega fusion; a variant is named by its letters at X, in order, B8GW30 (parent)
chain: MESVVVGEPGMSEGRRGLGRGLSALLGEVDAAPAQAPGEQLGGSREAPIEILQRNPDQPRRTFREEDLEDLSNSIREKGVLQPILVRPSPDTAGEYQIVAGERAWRAAQRAGLKTVPIMVRELDDLAVLEIGIIENVQRADLNVLEEALSYKVLMEKFERTQENIAQTIGKSXSHVANXMRLLXLPDEVQSYLVSGELTAXHARAIAAAADPVALAKQIIEGGLSVRETEALARKAPNLSAGKSKGGRPPRVKDTDTQALESDLSSVLGLDVSIDHRGSTGTLTITYATLEQLDDLCNRLTRGI

Variants of: B1
Assay: one-hybrid fitness for binding NBS DNA (the Noc-binding site; scaled: cognate 1, non-cognate 0); higher = stronger binding
Settings: with NBS DNA site
Summary of the method: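 Fitness here means the log change in variant-to-wild-type read ratio between plasmids sequenced before and after selection. That scale was set so cognate equals 1 and non-cognate equals 0. The selection was a bacterial one-hybrid screen of Caulobacter ParB libraries, four specificity codons randomised, in E. coli USO carrying a HIS3 reporter with the site 19 bp from the promoter, grown 48 hours at 37°C on M9-minus-histidine with 0.1 mM IPTG and 5 mM 3-AT.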

Row | Variant | one-hybrid fitness for binding NBS DNA
1 | HPPT | ≤ 0.2
2 | KQHT | ≤ 0.2
3 | SCQS | ≤ 0.2
4 | IACS | ≤ 0.2
5 | VPMV | ≤ 0.2
6 | LSYF | ≤ 0.2
7 | WTSE | ≤ 0.2
8 | ECTT | ≤ 0.2
9 | GRPW | ≤ 0.2
10 | CPKF | ≤ 0.2
11 | QPIK | ≤ 0.2
12 | QGFL | ≤ 0.2
13 | CRPP | ≤ 0.2
14 | HKPA | ≤ 0.2
15 | CGKE | ≤ 0.2
16 | RNTN | ≤ 0.2
17 | MRHP | ≤ 0.2
18 | SVKN | ≤ 0.2
19 | IDYR | ≤ 0.2
20 | QQPA | ≤ 0.2
21 | RQGN | ≤ 0.2
22 | LPDR | ≤ 0.2
23 | AQKM | ≤ 0.2
24 | WWRR | ≤ 0.2
25 | NSMG | ≤ 0.2
26 | MKQR | ≤ 0.2

Row | Variant | one-hybrid fitness for binding NBS DNA
27 | HGHR | ≤ 0.2
28 | HCTD | ≤ 0.2
29 | QEST | ≤ 0.2
30 | EDES | ≤ 0.2
31 | WELN | ≤ 0.2
32 | AKSY | ≤ 0.2
33 | VHYG | ≤ 0.2
34 | MGHV | ≤ 0.2
35 | STLY | ≤ 0.2
36 | CCRE | ≤ 0.2
37 | VMGR | ≤ 0.2
38 | QMQP | ≤ 0.2
39 | QMRL | 0.287
40 | RCVM | ≤ 0.2
41 | IACC | ≤ 0.2
42 | RPSE | ≤ 0.2
43 | PVDG | ≤ 0.2
44 | VYNG | ≤ 0.2
45 | QYYL | ≤ 0.2
46 | TRYI | ≤ 0.2
47 | HRKE | ≤ 0.2
48 | HSEF | ≤ 0.2
49 | VHMG | ≤ 0.2
50 | SCFT | ≤ 0.2
51 | LDPI | ≤ 0.2
52 | KGTE | ≤ 0.2

Row | Variant | one-hybrid fitness for binding NBS DNA
53 | WNIG | ≤ 0.2
54 | TAKN | ≤ 0.2
55 | RFSA | ≤ 0.2
56 | RHNY | ≤ 0.2
57 | GQQL | ≤ 0.2
58 | QFHG | ≤ 0.2
59 | TYCK | ≤ 0.2
60 | LETV | ≤ 0.2
61 | PHPY | ≤ 0.2
62 | SNKL | ≤ 0.2
63 | KGVE | ≤ 0.2
64 | PTLI | ≤ 0.2
65 | RWSF | ≤ 0.2
66 | YEGR | ≤ 0.2
67 | YATS | ≤ 0.2
68 | IMDR | ≤ 0.2
69 | YGKT | ≤ 0.2
70 | ICSY | ≤ 0.2
71 | QAGM | ≤ 0.2
72 | WYRG | ≤ 0.2
73 | VAIC | ≤ 0.2
74 | FKMT | ≤ 0.2
75 | KMCC | ≤ 0.2
76 | KRSW | ≤ 0.2
